{"source": "PubChem BioAssay AID1671188", "about": "(National Center for Advancing Translational Sciences (NCATS), 2021)", "note": "Values joined by “and” are separate entries in the source; they are usually repeats but may differ in a detail not shown here. Identical values can stand only once. Among all 100,000 compounds or so, about 250 (0.25%) were called active. Inconclusive means that the source gave no clear call. Such entries were picked first, then a sample of the others. Calls follow the shape of the dose curve; as a rule, active = well fitted inhibition curve with a large enough effect; inconclusive = small, poorly fitted or top-dose-only effect; inactive = flat fitted curve, though single readings scatter. A potency beside an inconclusive call is a rough fit, not a confirmed value. % is scaled to controls: 0 for no effect and ±100 for the full control effect; potency is read from the fitted curve at half-maximal effect; tags tell the direction and shape of the fitted curve."}
{"molecular_target": "Alanine aminotransferase 2 (Homo sapiens) (UniProt Q8TD30)", "sequence (Q8TD30 whole entry, looked up)": "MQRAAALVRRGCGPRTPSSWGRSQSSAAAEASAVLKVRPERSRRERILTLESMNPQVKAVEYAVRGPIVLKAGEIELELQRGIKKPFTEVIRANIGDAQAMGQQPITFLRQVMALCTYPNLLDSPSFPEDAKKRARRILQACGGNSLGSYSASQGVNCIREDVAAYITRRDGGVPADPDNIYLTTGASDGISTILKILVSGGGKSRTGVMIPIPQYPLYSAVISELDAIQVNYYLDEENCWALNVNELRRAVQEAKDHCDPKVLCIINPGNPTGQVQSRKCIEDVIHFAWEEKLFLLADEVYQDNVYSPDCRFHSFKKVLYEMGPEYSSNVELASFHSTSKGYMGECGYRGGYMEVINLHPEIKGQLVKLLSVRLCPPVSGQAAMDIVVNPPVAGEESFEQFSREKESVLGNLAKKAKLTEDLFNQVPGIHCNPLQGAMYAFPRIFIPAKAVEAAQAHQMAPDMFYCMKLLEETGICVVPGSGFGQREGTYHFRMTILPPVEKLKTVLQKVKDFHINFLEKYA", "assay": "Primary qHTS assay for inhibitors of Glutamate pyruvate transaminase 2 (GPT2); also: nearly all actives have a fitted effect of over 60% in size", "settings": "Recombinant GPT2, coupled pyruvate oxidase/HRP Amplex Red fluorescence; activity change, negative = inhibition: at 57.7 µM (top of the series) unless noted; series mostly up to 57.7 µM", "method": "Assay Provider: Zhenghe John Wang Ph.D.\nCase Western Reserve University, Cleveland OH\nGlutamate pyruvate transaminase 2 (GPT2) catalyzes the reversible transamination of glutamate and pyruvate to provide a-ketoglutarate and alanine. We have optimized an assay for GPT2 enzymatic activity that couples pyruvate formation to detection of fluorescence using an established pyruvate oxidase/horseradish peroxidase / Amplex Red system.\nScreening conditions were 250uM a-KG, 2mM L-alanine, and 10ng/uL GPT2 in […] of solution; 10uL of Amplex reaction mix (outlined below) were added so that final concentrations of Amplex reagents in 50uL were 0.2mM ThPP, 0.2U/mL PO and HRP, and 50uM Amplex.\nNOTE: The volume of GPT2 in the system depends on the activity of it. The activity is different every batch. You need to test the activity before the assay. For full plate assay with automation, plate 20uL of GPT2 buffer to pin into, then add 10uL of GPT2 dilution followed immediately by 10uL of substrate dilution. 2 Columns of the plate were devoted to GPT2 buffer ([…] PH7.5, 0.0001% Tween) + 50uM AOA (known GPT2 inhibitor) to serve as a positive control. Complete the assay as normal. Amplex-red buffer: […] PH7.5, 1 mM EDTA, 1 mM MgCl2.\n1. Combine a-KG and L-alanine at desired concentrations and incubate for at least 10 minutes at 37C. Stocks of L-alanine and a-KG are diluted in distilled water. However, the stocks were diluted in GPT2 buffer for the assay.\n2. Prepare GPT2 dilution at the desired concentration in GPT2 buffer.\n3. Plate 40uL of GPT2 dilution with 40uL of substrate dilution and let incubate for 30 minutes at room temperature.\n4. Add 20uL of Amplex reaction mix prepared as follows: 1.5uL 200U/mL Horseradish Peroxidase, 200mM Thiamine Pyrophosphate, 200U/mL Pyruvate Oxidase; 7.5uL 10mM Amplex Red; 288uL Amplex Buffer.\n5. Incubate for 30 minutes at room temperature in the dark, then image using AM_Amplex_Fluorescence on plate reader nearest the window."}
{"compound": "O=C(Nc1ccc2c(N3CCOCC3)ncnc2c1)c1cccc(Br)c1", "Potency": "inconclusive: 35.5 µM [inhibitor, single point]"}
{"compound": "C[C@]1(CO)[C@H]2Cc3sc(NC(=O)c4ccco4)nc3[C@@H](CC(=O)Nc3ccccc3)[C@]2(C)CC[C@H]1O", "Potency": "inactive"}
{"compound": "O=c1cc(O)cc(/C=C/c2ccc(O)c(O)c2)o1", "Potency": "active: 6.31 µM"}
{"compound": "COc1ccccc1-c1cccc(C(=O)N2CCC[C@H]2C(=O)NCC2CCCCCC2)c1", "Potency": "inconclusive: 39.8 µM [inhibitor, single point]"}
{"compound": "CCN1CCC[C@H]1CNC(=O)c1cc(S(N)(=O)=O)ccc1OC", "Potency": "inconclusive: 6.31 µM [inhibitor, single point]"}
{"compound": "COc1ccc(NC(=O)NC[C@H]2O[C@@H]3C[C@@H](CC(=O)NCc4cnn(C)c4)O[C@@H]3[C@@H]2O)cc1", "Potency": "inconclusive: 39.8 µM [inhibitor, single point]"}
{"compound": "CC(C)(C)c1ccc(C(=O)N2CCC(c3n[nH]c(=O)n3Cc3ccc(F)cc3)CC2)cc1", "Potency": "inactive"}
{"compound": "Cc1cccc2nc(C(=O)N3CCC(n4cc(C(C)(C)O)nn4)CC3)cn12", "Potency": "inconclusive: 39.8 µM [inhibitor, single point]"}
{"compound": "CCCCS(=O)(=O)N1CCCC2(C1)Nc1cccnc1NC2=NCc1ccccc1", "note": "(stereo unspecified)", "Potency": "inconclusive: 15.8 µM [inhibitor, partial curve]"}
{"compound": "Cc1ccc(NC(=O)Cn2nc3n(c2=O)CCCC3)cc1Cl", "Potency": "inactive"}
{"compound": "CCOC(=O)C1=C(C)N=C2SC=C(CC(=O)Nc3ccc(OC)cc3)N2C1c1ccccc1F", "note": "(stereo unspecified)", "Potency": "inconclusive: 39.8 µM [inhibitor, single point]"}
{"compound": "CC(CCc1ccc(O)cc1)NCCc1ccc(O)c(O)c1", "note": "(stereo unspecified)", "Potency": "inconclusive: 10.9 µM [inhibitor, full curve] and inconclusive: 4.47 µM [inhibitor, single point] and inconclusive: 7.08 µM [inhibitor, single point]"}
{"compound": "O=C1CO[C@H]2CCN(Cc3ccc4[nH]ccc4c3)CC[C@@H]2N1Cc1ccc(O)cc1", "Potency": "inconclusive: 10 µM [inhibitor, single point]"}
{"compound": "O=C(NCc1ccc(F)cc1)c1csc(N2CCN(c3ccccc3F)CC2)n1", "Potency": "inactive"}
{"compound": "C=C1CCC2C(C)(C)CCC[C@]2(C)[C@H]1C/C=C(\\CO)C(=O)C(=O)O", "note": "(stereo partly specified)", "Potency": "inconclusive: 1 µM [inhibitor, full curve, poor fit]"}
{"compound": "CN1C(=O)CC(C(=O)O)C12CCN(Cc1cccc(OC(F)F)c1)CC2", "note": "(stereo unspecified)", "Potency": "inconclusive: 0.708 µM [inhibitor, full curve, poor fit]"}
{"compound": "COc1ccc(CNC[C@H]2Cn3cc(-c4ccccc4)nc3CO2)cc1", "Potency": "inactive"}
{"compound": "Cc1nc(C)c(C(=O)N2CCC3(CC2)CC(N2CCOCC2)CCO3)s1", "note": "(stereo unspecified)", "Potency": "inconclusive: 7.08 µM [inhibitor, single point]"}
{"compound": "CCCN(CCC)C(=O)[C@@]12CCCC[C@H]1N(CCC(C)C)C(=O)CC2", "Potency": "inconclusive: 7.94 µM [inhibitor, partial curve, poor fit]"}
{"compound": "COc1ccccc1C(=O)NC1CCN(Cc2cccc(-c3ccc(F)c(F)c3)c2)CC1", "Potency": "inconclusive: 7.94 µM [inhibitor, full curve]"}
{"compound": "COc1cccc(-c2nn(-c3ccccc3)c(OC(C)=O)c2-c2ccc(NC(=O)c3ccco3)cc2)c1", "Potency": "inconclusive: 14.1 µM [inhibitor, partial curve, poor fit]"}
{"compound": "O=C(CC1CCCN(c2cn[nH]c(=O)c2)C1)NCCC1=CCCCC1", "note": "(stereo unspecified)", "activity change, negative = inhibition": "inconclusive: -30.6% [inhibitor]"}
{"compound": "CSCCNC(=O)[C@@H]1CCCN1c1nccc(Nc2ccccc2Cl)n1", "Potency": "inconclusive: 1.41 µM [inhibitor, full curve, poor fit]"}
{"compound": "CNC(=O)N1CCC(n2c(C)cnc2C2CC2)CC1", "Potency": "inconclusive: 35.5 µM [inhibitor, single point]"}
{"compound": "COc1ccccc1CCC(=O)N1CCCN(c2cc(-c3ccc(Cl)cc3)[nH]n2)CC1", "Potency": "inconclusive: 39.8 µM [inhibitor, single point]"}
{"compound": "O=C(Cn1c(=O)oc2ccccc21)N1CCCC(Cc2noc(-c3ccccc3)n2)C1", "note": "(stereo unspecified)", "Potency": "inactive"}
{"compound": "O=C(c1ccc(OC2CCN(C(=O)c3cccc(Cl)c3)CC2)nc1)N1CCOCC1", "Potency": "inconclusive: 3.55 µM [inhibitor, partial curve, poor fit]"}
{"compound": "Cc1ccc(CCN2CCC3(Cc4ccccc4CNC3=O)C2)cc1", "note": "(stereo unspecified)", "Potency": "inconclusive: 7.08 µM [inhibitor, single point]"}
{"compound": "N#Cc1cccnc1N1CCN(c2nccc(CCC(F)(F)F)n2)CC1", "Potency": "inconclusive: 39.8 µM [inhibitor, single point]"}
{"compound": "COc1ccc(CNc2ncnc3c2CN(C2CCCNC2)C(=O)CN3C)cc1OC", "note": "(stereo unspecified)", "Potency": "inconclusive: 6.31 µM [inhibitor, single point]"}
{"compound": "COc1ccc(Cn2c(C3CCN(C(=O)c4cc(C)cc(C)c4)CC3)n[nH]c2=O)cc1", "Potency": "inconclusive: 6.31 µM [inhibitor, single point]"}
{"compound": "COc1ccc(-c2cc(N3CCCC(NC(=O)c4cc5ccccc5[nH]4)C3)n[nH]2)cc1", "note": "(stereo unspecified)", "Potency": "inconclusive: 11.2 µM [inhibitor, partial curve]"}
{"compound": "O=C(c1c(F)cccc1F)N1CCC(n2cc(-c3nc(-c4ccccc4)no3)nn2)CC1", "Potency": "inactive"}
{"compound": "Cc1ccc(OCC(=O)NC2CCN(c3cc(-c4ccccc4)[nH]n3)CC2)cc1", "Potency": "inactive"}
{"compound": "O=C(NC1CCCN(c2cc(-c3ccccc3)[nH]n2)C1)c1ccc2cc[nH]c2c1", "note": "(stereo unspecified)", "Potency": "inconclusive: 17.8 µM [inhibitor, partial curve, poor fit]"}
{"compound": "Cc1ccc(S(=O)(=O)NC[C@H]2OC[C@@H](NCc3ncc[nH]3)[C@@H]2O)cc1", "Potency": "inconclusive: 56.2 µM [inhibitor, single point]"}
{"compound": "c1ccc(-c2cnn3cc(-c4ccc(OCCN5CCOCC5)cc4)cnc23)cc1", "Potency": "inconclusive: 1.41 µM [inhibitor, full curve, poor fit]"}
{"compound": "Cc1noc(C)c1[S+](=O)([O-])N1CCC2(CC1)C(=O)NN=C2c1ccccn1", "Potency": "inconclusive: 39.8 µM [inhibitor, single point]"}
{"compound": "O=C(NCc1ccc(Cl)cc1)c1ccc(N2CC3CC(C2)[C@H]2CCCC(=O)N2C3)nc1", "note": "(stereo partly specified)", "Potency": "inconclusive: 20 µM [inhibitor, partial curve]"}
{"compound": "CN(CC(=O)N1CCC(CCOc2ccccc2F)C1)S(=O)(=O)c1ccc2c(c1)oc(=O)n2C", "note": "(stereo unspecified)", "Potency": "inactive"}
{"compound": "Cc1ccccc1Nc1cnc2ccc(-c3cccc(CO)c3)nn12", "Potency": "inactive"}
{"compound": "COc1ncccc1CNC[C@H]1O[C@@H]2C[C@@H](CC(=O)NCc3nccn3C)O[C@@H]2[C@@H]1O", "Potency": "inconclusive: 56.2 µM [inhibitor, partial curve, poor fit]"}
{"compound": "COC(=O)C1=COC(O[C@@H]2O[C@H](CO)[C@@H](O)[C@H](O)[C@H]2O)C2C(C)C(=O)CC12", "note": "(stereo partly specified)", "Potency": "inconclusive: 22.4 µM [inhibitor, single point]"}
{"compound": "CC(C)c1ccc(CNC(=O)c2ccc(CN3C(=O)NC4(CCOCC4)C3=O)cc2)cc1", "Potency": "inactive"}
{"compound": "COCCNC(=O)c1cn2cc(-c3ccccc3)sc2n1", "Potency": "inactive"}
{"compound": "COC(=O)C12C(=O)C(C)=C(O)C1(C)C(C)=CC1C3(CO)CCC(O)C(C)(C)C3CCC12C", "note": "(stereo unspecified)", "Potency": "inconclusive: 1.26 µM [inhibitor, full curve, poor fit]"}
{"compound": "OCc1ccc(CN2C[C@H](O)C[C@H]2c2nc(-c3ccc4c(c3)OCO4)no2)o1", "Potency": "inconclusive: 5.62 µM [inhibitor, partial curve, poor fit]"}
{"compound": "C=CCn1c(-c2ccc(F)cc2)cn2cc(C(=O)N(C)CCO)nc2c1=O", "Potency": "inconclusive: 28.2 µM [inhibitor, single point]"}
{"compound": "Brc1ccccc1-c1ccccc1", "Potency": "inconclusive: 14.1 µM [inhibitor, single point]"}
{"compound": "O=C1CC(c2noc(-c3ccccc3OC(F)(F)F)n2)CN1C1CCCCC1", "note": "(stereo unspecified)", "Potency": "inconclusive: 8.91 µM [inhibitor, full curve, poor fit]"}
{"compound": "COc1cccc(CC(=O)N2CCCN(c3cc(-c4ccc(Br)cc4)[nH]n3)CC2)c1", "Potency": "inconclusive: 17.8 µM [inhibitor, partial curve, poor fit]"}
{"compound": "CCn1c(C)ccc(C(=O)N2CCc3[nH]nc(-c4ccccc4F)c3C2)c1=O", "Potency": "inconclusive: 5.01 µM [inhibitor, full curve, poor fit]"}
{"compound": "C[S+](=O)([O-])N1CC2(CCCN2Cc2ccccn2)Cc2ccccc21", "note": "(stereo unspecified)", "Potency": "inconclusive: 0.794 µM [inhibitor, full curve, poor fit]"}
{"compound": "CC(C)(C)C(=O)N[C@H]1C[C@@H](Cc2cc(CN3CCN(c4ccccc4)CC3)on2)C1(C)C", "Potency": "inactive"}
{"compound": "Cc1nc(NCCN2CCCC(C(N)=O)C2)c2cccnc2n1", "note": "(stereo unspecified)", "Potency": "inconclusive: 1.41 µM [inhibitor, full curve]"}
{"compound": "Cc1cc2c(NC3CC(c4nnc(CN(C)C)n4C)C3)ncnc2s1", "note": "(stereo unspecified)", "Potency": "inactive"}
{"compound": "CC(C)C[C@@H]1N[C@H](C(=O)NCc2cccs2)Cc2c[nH]c3cccc1c23", "Potency": "inconclusive: 2.82 µM [inhibitor, full curve, poor fit]"}
{"compound": "Cc1ccc(C(=O)N2CCc3nnc([C@@H]4C[C@@H](O)CN4C(C)C)n3CC2)cn1", "Potency": "inconclusive: 6.31 µM [inhibitor, single point]"}
{"compound": "COCCOC1CCN(C(=O)Nc2ccc(OC)cc2)CC1", "Potency": "inconclusive: 39.8 µM [inhibitor, partial curve, poor fit]"}
{"compound": "O=C(c1ccncn1)N1CCC(Oc2cnc3c(ccn3-c3cncnc3)c2)CC1", "Potency": "inactive"}
{"compound": "O=C(Cc1cccc(F)c1)NC1CCN(c2cc(-c3ccc(F)cc3)[nH]n2)C1", "note": "(stereo unspecified)", "Potency": "inconclusive: 39.8 µM [inhibitor, single point]"}
